Source: PubChem BioAssay AID1508623 (National Center for Advancing Translational Sciences (NCATS), 2021)
In all, about 48,000 compounds went through this assay and about 450 (0.94%) were called active. Another 19% or so got no clear call; they are omitted. Calls follow the shape of the dose curve; as a rule, active = well fitted inhibition curve with a large enough effect; inconclusive = small, poorly fitted or top-dose-only effect; inactive = no such curve, though single readings can be large or run the other way. Some of the results follow.

Assay: Primary qHTS for Identification of Small Molecule Inhibitors of Huntingtin Promoter Activity; also: nearly all actives have a fitted effect of over 50% in size
Details: HEK293 HTT promoter firefly luciferase reporter (activity 0% = vehicle and -100% = no light), 24 h; series mostly up to 57.5 µM; activity change, negative = inhibition: at the top concentration
Outline: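 Firefly luciferase readout (Dual-Glo, 10 min RT) after 24 h, 37 °C compound exposure (final up to 57.5 uM) of HEK293 reporter cells cultured 24 h beforehand; PTC124 at 50 uM final as control inhibitor; activity scaled vehicle 0%, zero RLU -100%.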

Activity change, negative = inhibition, inactive:
Cc1ccc(C)c(CN2C(=O)c3ccccc3S(=O)c3ccc(C(=O)N4CCCCC4)cc32)c1 (configuration not stated) -5.29%
Cc1ccc(C(=O)C(=O)O)cc1C -2.65%
CSc1ncc(C(=O)NCc2cccc(C)c2)c(-c2ccccc2)n1 -18.7%
COc1ccccc1/C=C/C(=O)Nc1nc2n(n1)C(c1ccc(F)cc1)C=C(c1ccccc1)N2 (configuration not stated) -24.5%
C=CCc1ccccc1OCCSc1nc(-c2ccccc2F)nc2cc(=O)[nH]n12 -1.07%
COc1ccc(C(=O)c2cn(Cc3ccccc3OC)c3cc4c(cc3c2=O)OCO4)cc1 -0.898%
COc1ccc(CNC(=O)Cn2cccc2C(=O)c2ccccc2C)cc1 25.2%
COC(=O)c1ccc(NC(=O)CC2C(=O)N(c3ccccc3)C(=O)N2Cc2cccs2)cc1 (configuration not stated) -28.3%
CCN(CC)C(=O)c1sc2c(c1C)c(=O)n(-c1ccc(OC)cc1OC)c(=O)n2CC(=O)Nc1ccccc1 -0.567%
Cc1cccc(NC(=O)c2c(NC(=O)c3ccccc3)sc3c2CCC3)c1 27.4%
Cc1cc(C)cc(-n2ccnc2SCC(=O)Nc2ccccc2F)c1 -30.2%
CSc1ccc(CCNC(=O)c2ccc(-n3c(C)cc4c3CCC(C)C4)cc2)cc1 (configuration not stated) 38.1%
COc1ccc2c(c1)c(CC(=O)Nc1c(C)cccc1C)c(C)n2C(=O)c1ccc(Cl)cc1 -4.52%
CC(=O)N1CCCC1c1nc2ccccc2n1Cc1cccc(C)c1 (configuration not stated) -5.91%
Cc1cc(C)cc(NC(=O)CCn2cnc3ccccc3c2=O)c1 -17.4%
CCOc1ccccc1NC(=O)Cn1c(=O)n(-c2ccc(C)cc2)c(=O)c2c1cnn2C -8.08%
COc1ccc(NC(=O)c2ccc(NC(=O)CCS(=O)(=O)c3cccs3)cc2)cc1Cl -2.03%
Cc1ccc(-n2nnnc2SCC(=O)NCCc2ccccc2)cc1C 7.93%
CCOc1ccc(N(CC(=O)OC)S(=O)(=O)c2ccc3c(c2)n(C)c(=O)c(=O)n3C)cc1 -0.246%
CCC(C)NC(=O)Cn1c(=O)n(-c2ccc(Cl)cc2)c(=O)c2c3c(sc21)CCCC3 (configuration not stated) -9.63%
Cc1ccc(C)c(N2CCN(C(=O)c3c(C)oc4nc(C)nc(N5CCOCC5)c34)CC2)c1 -17.3%
CCCc1nnc(SCc2cc(=O)c3c(C)cc(C)cc3[nH]2)n1C -2.32%
CCc1nnc(NC(=O)CSc2nccn2Cc2ccc(Cl)cc2)s1 5.2%
CCCN[C@H]1CCc2nc(N)sc2C1
O=C(NCc1cccc(Cl)c1)c1cnc(N2CCOCC2)c2ccccc12 -11.2%
CCc1ccc(CNC(=O)Cn2nc(C)c3nn(-c4ccc(Cl)cc4)c(C)c3c2=O)cc1 0.191%
COCCNC(=O)c1ccc2c(c1)ncn2-c1cc(C)ccc1OC -3.85%
Cn1cccc1-c1cc2n(n1)CCC(=O)N2CCCC(=O)NCc1cccc(Cl)c1 7.55%
Cc1ccc(C(=O)Nc2cc(-c3cn4cccnc4n3)ccc2C)cc1C 0.475%
Cc1nnc(NC(=O)CSc2nccn2Cc2ccccc2)s1 -12.7%
CSCCC(NS(=O)(=O)c1ccc2c(c1)oc(=O)n2C)C(=O)NCc1ccc(Cl)cc1 (configuration not stated) -1.49%
O=C(Nc1cc(-c2cccc(Cl)c2)nn1-c1ccccc1)c1ccccc1F -6.89%
CC(C)CCNc1nc(Nc2ccccc2)c2cnn(C)c2n1 -22.3%
NCC[C@H](O)C(=O)N[C@@H]1C[C@H](N)[C@@H](O[C@H]2O[C@H](CN)[C@@H](O)[C@H](O)[C@@H]2O)[C@H](O)[C@@H]1O[C@H]1O[C@H](CO)[C@@H](O)[C@H](N)[C@@H]1O -4.09% [at 0.739 µM]
O=C(Cc1ccc(Cl)cc1)NCCc1csc2nc(-c3ccccc3F)nn12 -8.95%
CCC(C)(C)NC(=O)C(NS(=O)(=O)c1cccs1)c1ccccc1 (configuration not stated) -18%
Cc1cc(F)ccc1Nc1nc2ccc(Cl)cc2n2cnnc12 -9.73%
CCOC(=O)c1ccc(-n2c(CCC(=O)O)ccc2-c2ccccc2)cc1O 8.48%
CC(CC(=O)Nc1ccc(F)cc1)S(=O)(=O)c1cc2c3c(c1)CCN3C(=O)CC2 (configuration not stated) -15.5%
Cc1cc(=O)oc2cc(O)ccc12
COc1ccc(N2CCN(C(=O)C(CC(C)C)NS(=O)(=O)c3ccc4nc(C)sc4c3)CC2)cc1 (configuration not stated) -21.3%
CNc1ccc(-c2nc(-c3ccncc3)no2)cc1[N+](=O)[O-] 62%
O=C(NC1CCCCC1)c1ccc2c(c1)N(Cc1cccc(Cl)c1)C(=O)c1ccccc1S2(=O)=O -9.59%
Cc1ccc(CNc2cc(C)nc3nc(-c4ccc(C)cc4)nn23)cc1 -3.85%
COC(=O)c1ccccc1NC(=O)CSc1nc2ccccc2nc1Cc1ccc(F)cc1 -2.23%
Cc1cccc(NC(=O)Cn2c(=O)n(CC3CCC(C(=O)NCCc4ccccc4)CC3)c(=O)c3ccccc32)c1 (configuration not stated) -6.92%
Fc1ccc(-c2cc(-c3ccc(F)cc3)c3c(n2)-c2cc(F)ccc2OC3)cc1 -17.3%
Fc1ccc(Nc2nc(-c3cccc(Cl)c3)c3c(n2)-c2ccccc2OC3)c(F)c1 -12.8%
CCc1ccc(NC(=O)CSc2nc(-c3ccc(C)cc3)nc3c2Cc2c(CO)cnc(C)c2O3)cc1 -12.9%
CCOc1ccc2nc(N3CCCC(C(=O)Nc4ccccc4CC)C3)sc2c1 (configuration not stated) 53.7%
COc1cccc(-c2ccc(NC(=O)C3=C(C(=O)O)CCC3)c(F)c2)c1 19.8%
O=C(O)Cc1ccc2c(c1)C(=O)c1ccccc1CO2 18.6%
CCc1ccc(-c2nc3cc(NC(=O)c4ccc(C)c(C)c4)ccc3o2)cc1 2.27%
Cc1c(NC(=O)c2cccs2)cccc1-c1nc2cc(Cl)ccc2o1 -15.3%
COc1ccc(S(=O)(=O)n2nc(-c3ccco3)nc2NCc2ccc(C(C)C)cc2)cc1 -26.7%
CCOc1ccc(C(=O)Nc2ccc(OCc3cc(=O)n4cccc(C)c4n3)cc2)cc1 -10.2%
CCc1nnc2c3ccccc3nc(Nc3cc(C)cc(C)c3)n12 -17%
COc1ccc(S(=O)(=O)NCc2cccn2Cc2cc(C)ccc2C)cc1OC -22.8%
CC(=O)NCCNC(=O)CCCc1nnc2n(CC(C)C)c(=O)c3sccc3n12 -13.7%
Cc1nc2ccccc2n1Cc1ccc(Cl)cc1 -24.6%
COc1cccc(NC(=O)Cn2c(=O)n(Cc3ccc(F)cc3)c(=O)c3sc4ccccc4c32)c1 -17.4%
O=C(CCCCCCNC(=O)c1cnc(N(c2ccccc2)c2ccccc2)nc1)NO 193%
COc1ccc(NC(=O)[C@H](Cc2ccccc2)N2Cc3ccccc3C2=O)cc1OC -13.4%
COc1cccc(NC(=O)Cn2c(=O)n(Cc3ccc4c(c3)OCO4)c(=O)c3oc4ccccc4c32)c1 0.13%
Cc1ccc(-n2ncc(C(=O)NCCN3CCN(C)CC3)c2C2CCN(C(=O)OC(C)(C)C)CC2)cc1C 0.581%
CC(=O)c1cccc(NS(=O)(=O)c2c(C(=O)N3CCCCCC3)c(C)n(C)c2C)c1 -2.12%
CCOc1ccc(CNC(=O)Cn2c(=O)c3cccn3c3cccnc32)cc1 -10.1%
CCc1ccc(CNC(=O)CCn2nc(C)c3c(C)n(-c4ccccc4)nc3c2=O)cc1 7.4%
COc1cc(NC(=O)c2noc3c2CC(C)CC3)c(OC)cc1Cl (configuration not stated) 0.637%
O=c1[nH]c(=O)n([C@H]2C[C@@H](O)[C@@H](CO)O2)cc1I 23.2%
COc1ccc(-n2c(SCCC(C)C)nc3sc4c(c3c2=O)CC(C(C)C)OC4)cc1 (configuration not stated) -1.34%
Cc1nn(CCCC(=O)Nc2ccccc2C(F)(F)F)c(=O)c2nn(-c3ccccc3)c(C)c12 -27.5%
Cc1nn2c(-c3ccccc3)cc(-c3ccccc3)nc2c1-c1ccc(Cl)cc1 2.82%
O=C(Nc1ccccc1)c1cccc(N2CCCS2(=O)=O)c1 -18.5%
Cc1cc(C)n2nc(CNC(=O)c3ccc(Cl)cc3)nc2n1 6.8%
COc1ccc(C(CC(=O)Nc2ncccc2C)N2Cc3ccccc3C2=O)cc1OC (configuration not stated) -12.3%
Cc1ccc(Cl)cc1N1CCN(C(=O)c2ccc3c(Cl)c4c(nc3c2)CCCC4)CC1 -7.88%
O=C(Cn1c(=O)ccc2cc(S(=O)(=O)N3CCCC3)ccc21)Nc1ccccc1 -7.85%
COc1ccc(-c2nc(CNC(=O)Nc3ccccc3)c(C)o2)c(OC)c1 -13.6%
CCn1ccc2c(OCC(=O)Nc3ccc(OC)cc3OC)cccc2c1=O 0%
O=c1ccc(-c2ccccc2)nn1Cc1c(F)cccc1Cl -21.6%
CCn1cc(C(=O)NCCC(C)C)c(=O)c2cc(S(=O)(=O)N(C)C3CCCCC3)ccc21 -5.57%
CCC(=O)N1c2ccccc2CC1C(=O)NCCCN1CCN(c2ccc(OC)cc2)CC1 (configuration not stated) 6.42%
CC1CCCCN1c1cc2c(cc1F)c(=O)c(S(=O)(=O)c1ccccc1)cn2Cc1ccccc1 (configuration not stated) -12.9%
O=C(Cn1c(-c2cccs2)cc2cc(F)ccc21)NCCc1ccc(Cl)cc1 -11.8%
CCCCOc1ccc(CNC(=O)c2cnc3sc(N4CCCC4)nn3c2=O)cc1 -8.59%
Cc1c(Cl)cccc1NC(=O)C(=O)NCCc1csc2nc(-c3ccccc3F)nn12 -30.3%
COc1ccccc1Nc1nc(C)nc(N)c1S(=O)(=O)c1ccccc1 -8.74%
Cc1nc2c3cccnc3nn2c(C)c1CCC(=O)NCc1ccccc1 -25.1%
CCN(CC)S(=O)(=O)c1ccc2c(c1)nc(CN(C)C(=O)Nc1ccc(C)c(Cl)c1)n2C -26.6%
Cc1ccc(C)c(NC(=O)c2cc(S(=O)(=O)NCc3ccccc3)ccc2F)c1 -26.6%
COc1ccc(Nc2ncc(C(=O)Nc3cccc(Cl)c3)c3ccccc23)cc1 -6.1%
CCc1ccc(NC(=O)C(=O)NCC(c2ccc3c(c2)OCO3)N2CCN(C)CC2)cc1 (configuration not stated) -15.7%
Cc1ccc(OCC(=O)NCC2(N3CCN(C)CC3)CCCCC2)cc1 -2.92%
CC(C)CCNC(=O)c1cnc2sc(N3CCCCCC3)nn2c1=O -25.9%
COc1ccc(CNC(=O)c2ccc(Cn3c(=O)c4cccn4c4cccnc43)cc2)c(OC)c1 -2.4%
Cc1ccc(O)c(NC(=O)c2cc(-c3ccc(F)cc3)no2)c1 30.5%
